Test results: PubChem BioAssay AID1347055 (National Center for Advancing Translational Sciences (NCATS), 2019)
Values joined by “and” are separate entries in the source; they are usually repeats but may differ in a detail not shown here. Equal values may be shown once. Among all 54,000 compounds or so, about 120 (0.22%) were called active. The inconclusive results got no clear call from the source; some entries with a clear call stand among them for comparison. The call rests on the fitted dose curve; in most records, active means well fitted inhibition curve with a large enough effect; inconclusive means small, poorly fitted or top-dose-only effect, or effect the other way; inactive means flat fitted curve, though single readings scatter. A potency beside an inconclusive call is a rough fit, not a confirmed value.

Target: Fumarate hydratase, mitochondrial (Homo sapiens) (UniProt P07954)
Sequence of UniProt P07954 (P07954 whole entry, looked up): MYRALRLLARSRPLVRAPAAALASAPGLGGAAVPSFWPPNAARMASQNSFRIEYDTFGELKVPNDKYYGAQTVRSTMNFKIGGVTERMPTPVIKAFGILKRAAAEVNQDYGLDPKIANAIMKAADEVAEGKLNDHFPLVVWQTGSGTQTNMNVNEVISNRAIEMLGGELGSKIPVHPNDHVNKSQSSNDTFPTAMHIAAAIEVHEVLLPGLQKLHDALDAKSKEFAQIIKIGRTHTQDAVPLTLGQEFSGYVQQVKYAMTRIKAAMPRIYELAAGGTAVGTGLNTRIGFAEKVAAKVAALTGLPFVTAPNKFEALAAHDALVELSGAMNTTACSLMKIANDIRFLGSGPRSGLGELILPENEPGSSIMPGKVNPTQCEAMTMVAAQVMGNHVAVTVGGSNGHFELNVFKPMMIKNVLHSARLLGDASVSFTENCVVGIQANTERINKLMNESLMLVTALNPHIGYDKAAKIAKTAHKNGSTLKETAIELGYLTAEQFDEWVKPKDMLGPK
Assay: Identification of activators of human fumarate hydratase by quantitative high-throughput screening; further: the screen sought activators but most active calls are inhibition curves; nearly all actives have a fitted effect of over 45% in size
Conditions: FH coupled MDH/diaphorase resazurin fluorescence, 15 min; activity change, negative = inhibition: at 79.9 µM (top of the series)
On the % scale 0 is the no-effect control and ±100 the full control effect; potency means the concentration at half of the fitted maximal effect; tags describe the fitted curve by direction and shape.

SMILES	Potency	activity change, negative = inhibition
CCOc1ccc(NC(=O)c2cnn3c2NC(c2cccc(OC)c2)=CC3c2ccccc2)cc1 (stereo not drawn)	inactive	
Cn1c(=O)n(C)c2cc(N3CCOCC3)c(NC(=O)c3ccccc3Br)cc21	inconclusive: 31.6 µM [inhibitor, single point]	
CCOc1ccc(C2Nc3c(C)cccc3-c3cc(C)nn32)cc1 (stereo not drawn)	inconclusive: 39.8 µM [inhibitor, partial curve, poor fit]	
COC(=O)C1=C(C)NC(C)=C(C(=O)OC)C1c1ccccc1[N+](=O)[O-]	inconclusive: 17.4 µM [inhibitor, partial curve] and active: 15.8 µM	
CCCCCCCCCCCCCCCCCCOC[C@H](COP(=O)([O-])OCC[N+](C)(C)C)OC	inactive	
CC(C)NC[C@H](O)COc1ccc(CCOCC2CC2)cc1	inactive	
Cc1ccccc1NS(=O)(=O)c1ccc2[nH]cc(C(=O)N3CCCCC3)c(=O)c2c1	inactive	
CCOc1ccc(CNCc2c(C(=O)O)n(Cc3ccc(C)cc3)c3cc(C)ccc23)cc1	inconclusive: 50.1 µM [inhibitor, single point]	
Cc1c(Cl)cccc1NC(=O)CN(CCc1ccccc1)S(=O)(=O)c1ccccc1	inconclusive: 5.62 µM [inhibitor, partial curve, poor fit]	
COc1cc2c(cc1O)CC[C@@H]1[C@@H]2CC[C@]2(C)[C@@H](O)CC[C@@H]12	inactive	
Cc1nc(-c2ccc(Cl)cc2)sc1CCNC(=O)c1cccs1	inconclusive: 28.2 µM [inhibitor, single point]	
Cc1cccn2c(=O)cc(COc3cccc(NC(=O)COc4ccc(F)cc4)c3)nc12	inactive	
Cc1ccc2c(c1)C(c1ccc(F)cc1)N(C(=O)c1ccc(OC(C)C)cc1)CC(=O)N2 (stereo not drawn)	inconclusive: 14.1 µM [inhibitor, partial curve]	
Nc1ccc(O)c(C(=O)O)c1	inconclusive: 19.5 µM [inhibitor, partial curve, poor fit]	
CCOc1ccccc1NC(=O)Cn1ccn(Cc2ccc(C)cc2)c(=O)c1=O	inactive	
Cc1ccccc1OCc1nnc(SCc2cc(=O)c3cccc(F)c3[nH]2)n1C	inactive	
CC(=O)O[C@@H]1CC[C@@]2(C)C(CC[C@]3(C)C2[C@H](O)C=C2[C@H]4[C@@H](C)[C@H](C)CC[C@]4(C)CC[C@]23C)[C@@]1(C)C(=O)O (stereo partly drawn)	inconclusive: 26.1 µM [inhibitor, single point]	
Cc1cc(C)c(NC(=O)Nc2ccc3snnc3c2)c(C)c1	inactive	
O=C(O)CSc1cc(NS(=O)(=O)c2ccc(Br)cc2)c2ccccc2c1O	active: 15.8 µM	
Cc1cccc2c1-c1sc(C(=O)N(C)c3cccc(C(F)(F)F)c3)cc1CO2	inconclusive: 31.6 µM [inhibitor, partial curve, poor fit]	
O=C(Nc1c(-c2cccs2)nc2ccccn12)c1ccc(Cl)cc1	inactive	

SMILES	Potency	activity change, negative = inhibition
CCOc1cccc(C2c3c(-c4cc(C)ccc4O)n[nH]c3C(=O)N2Cc2ccco2)c1 (stereo not drawn)	inconclusive: 31.6 µM [inhibitor, partial curve, poor fit]	
CCCCN(CC)CCCNC(=O)c1cc2c(=O)[nH]c3ccccc3c2s1	inconclusive: 50.1 µM [inhibitor, partial curve, poor fit]	
CCOc1ccc(CCNC(=O)CN2N=C(c3ccccc3)CCC2=O)cc1OCC	inactive	
O=C(NCCc1nc2ccccc2n1Cc1ccc(Cl)cc1Cl)c1ccco1	inconclusive: 35.5 µM [inhibitor, partial curve, poor fit]	
CCOc1ccc(N(C(C)C(=O)Nc2cc(Cl)ccc2OC)S(C)(=O)=O)cc1 (stereo not drawn)	inconclusive: 39.8 µM [inhibitor, partial curve, poor fit]	
CCN(CC)C(=O)c1sc2c(c1C)c(=O)n(-c1ccc(OC)cc1OC)c(=O)n2CC(=O)c1ccc(Cl)cc1	inconclusive: 28.2 µM [inhibitor, single point]	
COc1cc(NC(=O)COCc2cc(-c3ccc4c(c3)OCO4)on2)cc(OC)c1		inconclusive: -36.7% [inhibitor]
C[C@@H]1C(=O)O[C@H]2[C@@H](O)C34[C@H]5C[C@@H](C(C)(C)C)C36[C@@H](OC(=O)[C@@H]6O)O[C@@]4(C(=O)O5)[C@@]12O (stereo partly drawn)	inactive	
O=C(Nc1ccc(Cl)cc1)c1ccccc1NCc1ccncc1	inactive	
CCc1ccc(-c2nn(CC(=O)NCc3ccccc3)c3c2cnc2ccc(F)cc23)cc1	inconclusive: 44.7 µM [inhibitor, single point]	
COc1ccc(-c2[nH]c(-c3cccc(OC)c3)nc2SCC(=O)NC2CCCC2)cc1	inconclusive: 31.6 µM [inhibitor, single point]	
CCN(Cc1ccccc1)S(=O)(=O)c1cc(C(=O)Nc2cc(Cl)cc(Cl)c2)ccc1F	inactive	
Cc1cccc(Cc2c(C)nc3nc(SCC(=O)NCc4ccccc4)nn3c2C)c1	inconclusive: 35.5 µM [inhibitor, single point]	
COc1ccc(OC)c(/C=C/C(=O)Nc2ccc(C(=O)OCCC(C)C)cc2)c1	inconclusive: 39.8 µM [inhibitor, single point]	
CC(C)(C)c1ccc(-c2nc(SCC(=O)Nc3ccc(Cl)cc3)[nH]c(=O)c2C#N)cc1	inconclusive: 31.6 µM [inhibitor, partial curve]	
CCCCOc1cccc(C(=O)N(Cc2cccs2)c2ccc(OC)cc2)c1	inconclusive: 25.1 µM [inhibitor, partial curve, poor fit]	
CCN(CCCNC(=O)c1cc2c(Cl)nc3ccccc3c2s1)Cc1ccccc1	inconclusive: 31.6 µM [inhibitor, single point]	
Cc1ccc(NC(=O)CN(C)S(=O)(=O)c2ccc3[nH]c4c(c3c2)CCCC4)c(Cl)c1	inconclusive: 12.6 µM [inhibitor, partial curve]	
O=C(NCCSc1c[nH]c2ccccc12)c1ccc(Cl)cc1	inconclusive: 31.6 µM [inhibitor, single point]	
CCOc1ccc(NC(=O)NCCN2CCN(c3cc(Cl)ccc3C)CC2)cc1	inactive	
COc1cc(CN(C(=O)c2ccc(OC(C)C)cc2)c2ccccn2)cc(OC)c1OC	inactive	

SMILES	Potency	activity change, negative = inhibition
Nc1cc(C(F)(F)F)ccc1S	inactive	
COCCN1CCc2nc(SCC(=O)Nc3ccc(C)c(Cl)c3)[nH]c(=O)c2C1	inconclusive: 10 µM [inhibitor, single point]	
Cc1ccc(-n2ncc(C(=O)Nc3ccc4c(c3)OCCO4)c2C2CCN(C(=O)OC(C)(C)C)CC2)cc1C	inconclusive: 39.8 µM [inhibitor, single point]	
Cc1ccc(NC(=O)NC(C)c2c(-n3cccc3)sc(C)c2C)cc1F (stereo not drawn)	inconclusive: 50.1 µM [inhibitor, single point]	
COc1cccc(CNC(=O)c2ccc3c(c2)N(Cc2ccc(F)cc2Cl)C(=O)c2ccccc2S3)c1	inconclusive: 44.7 µM [inhibitor, partial curve, poor fit]	
Cc1ccc(Cl)cc1NC(=O)Nc1cn(CC(C)C)c(=O)c2ccccc12	inconclusive: 15.8 µM [inhibitor, partial curve]	
O=C1CN(C(=O)COc2ccccc2)C(c2ccc(F)cc2)c2cc(Br)ccc2N1 (stereo not drawn)	inconclusive: 28.2 µM [inhibitor, partial curve, poor fit]	
COC(=O)c1cc2sc(Cl)cc2n1CC(=O)Nc1cc(OC)cc(OC)c1	inactive	
COC(=O)c1ccccc1NC(=O)c1oc2ccc3c(c2c1C)C(=O)CC(C)(C)O3	inactive	
Cc1ccccc1NC(=O)CSC1=Nc2ccccc2C2=NC(Cc3ccccc3)C(=O)N12 (stereo not drawn)	inconclusive: 22.4 µM [inhibitor, single point]	
Cc1ccccc1/C=C/C1=NCCN1	inconclusive: 39.8 µM [inhibitor, single point]	
Cc1ccc2[nH]c(=O)c3cc(C(=O)N(CCCOC(C)C)Cc4ccco4)sc3c2c1	inconclusive: 5.62 µM [inhibitor, full curve]	
COc1ccc(Cl)cc1NC(=O)CSc1nnc2[nH]c(=O)cc(-c3ccccc3)n12		inconclusive: -63.1% [inhibitor]
C=Cc1ccc(Cn2c(C)c(CNCc3ccc(SC)cc3)c(C(=O)O)c2C)cc1	inconclusive: 35.5 µM [inhibitor, single point]	
Cc1cc2oc(C(=O)N(Cc3ccc(N(C)C)cc3)CC3CCCO3)c(C)c2cc1Cl (stereo not drawn)	inconclusive: 50.1 µM [inhibitor, single point]	
COc1cc(NC(=O)CSc2nc3nc(C)c(Cc4ccccc4)c(C)n3n2)cc(OC)c1OC	inconclusive: 31.6 µM [inhibitor, single point]	
Cc1[nH]c2ccccc2c1C1(O)C(=O)N(Cc2ccc(Cl)cc2)c2ccccc21 (stereo not drawn)	inconclusive: 35.5 µM [inhibitor, single point]	
CCc1cccc(C)c1Nc1c(-c2cccc(O)c2)nc2sccn12	inconclusive: 39.8 µM [inhibitor, single point]	
COc1ccc(CC(=O)Nc2sc3c(c2C(=O)Nc2ccc(C)cc2)CCCCC3)cc1	inconclusive: 56.2 µM [inhibitor, partial curve, poor fit]	
CCOc1ccccc1N(CC)C(=O)c1cc2c(=O)n(CC)c3ccccc3c2s1	inconclusive: 50.1 µM [inhibitor, partial curve, poor fit]	
Cc1cc(Nc2cccc(C(F)(F)F)c2)nc2ccc(NC(=O)c3cncc(Br)c3)cc12	active: 31.6 µM	
